# From patent publication US20240173317A1, “METHODS FOR TREATING PROGRESSIVE FAMILIAL INTRAHEPATIC CHOLESTASIS” (MIRUM PHARMACEUTICALS, INC., priority 2022, published 2024)
# Experiments:
# subjects with PFIC [1] = assay: ItchRO(Obs) pruritus severity, MARCH-PFIC Phase 3 study; type: in vivo, human; settings: BSEP deficiency group, all study participants, FIG. 10A-C
# Protocol: The primary analysis was conducted in the intent-to-treat (ITT) population of subjects with documented biallelic mutations in ABCB11 (PFIC 2), based on standard-of-care genotyping (primary cohort criteria). Subjects with a predicted complete absence of bile salt excretion pump (BSEP) function based on the type of ABCB11 mutation (PFIC 2), as determined by a standard-of-care genotype, were excluded from the primary cohort and could enroll only in the supplemental cohort. Subjects with other PFIC subtypes (e.g., PFIC 1/3/4/5/6, or new PFIC mutation variants) or postsurgical subjects (e.g., after internal or external biliary diversion surgery or subjects with reversal of biliary diversion surgery) were enrolled in a separate supplemental cohort and evaluated as part of secondary and exploratory analyses. […]
# Efficacy. Severity of pruritus was assessed using the Itch caregiver/patient reported outcome measure (ItchRO™) administered as a twice daily electronic diary. […] Pruritus was assessed and recorded twice daily, via ItchRO, beginning with the day after the screening visit and every day throughout the duration of the study. The severity of pruritus was measured by the completion of the first question in the ItchRO(Obs) (how severe were your child's itch-related symptoms) or ItchRO(Pt) (how itchy did you feel). […]
# subjects with PFIC [2] = assay: Clinician Scratch Scale (CSS) score, MARCH-PFIC Phase 3 study; type: in vivo, human; settings: BSEP deficiency group and PFIC group; FIG. 18A-B
# Source text: Clinician Scratch Scale (CSS). The CSS provides an assessment of itch severity. The clinician's assessment of the subject's pruritus focused on scratching and visible damage to the skin as a result of scratching as observed by the physician. The CSS uses a 5-point scale, in which 0 designates no evidence of scratching and 4 designates cutaneous mutilation with bleeding, hemorrhage and scarring. A clinician's assessment of pruritus made by the principal investigator or sub-investigator using the CSS was recorded at screening, baseline, and at additional study visits as outline in Table 2.
# For the PFIC Cohort, PFIC Type is included in the model as an additional covariate.
# Clinician Scratch Scale (CSS) was scored on a 0-4 scale, where 0=none and 4=cutaneous mutilations, haemorrage, and scarring (worst scratching).
compound,measurement,setting,value
"CCCCC1(CCCC)CS(=O)(=O)c2ccc(N(C)C)cc2[C@@H](c2ccc(OCc3ccc(C[N+]45CCN(CC4)CC5)cc3)cc2)[C@H]1O [maralixibat, 1-(4-((4-((4R,5R)-3,3-dibutyl-7-(dimethylamino)-4-hydroxy-1,1-dioxido-2,3,4,5-tetrahydrobenzo[b]thiepin-5-yl)phenoxy)methyl)benzyl)-1,4-diazabicyclo[2.2.2]octan-1-ium]",change from baseline in weekly morning average ItchRO[Obs] score over time,subjects with PFIC [1],significantly lower at each time point from Week 2 to Week 26
same,CSS score over time,subjects with PFIC [2],significantly lower at each time point from Week 2 to Week 26
